This is an account of results in article PMC6919601, “Identification of Plasmodium dipeptidyl aminopeptidase allosteric inhibitors by high throughput screening” (PLoS ONE, 2019).

Where “and” joins values, the source holds several entries; their conditions need not be identical. Identical values can stand only once. The campaign covered roughly 110,000 compounds. About 230 (0.21%) showed an effect of 50% or more. Some of the results follow.
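Also: 30 min substrate incubation versus DMSO and 10 µM JCP410 controls.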

Chain of DPAP1 (Q8IIJ9 whole entry, looked up): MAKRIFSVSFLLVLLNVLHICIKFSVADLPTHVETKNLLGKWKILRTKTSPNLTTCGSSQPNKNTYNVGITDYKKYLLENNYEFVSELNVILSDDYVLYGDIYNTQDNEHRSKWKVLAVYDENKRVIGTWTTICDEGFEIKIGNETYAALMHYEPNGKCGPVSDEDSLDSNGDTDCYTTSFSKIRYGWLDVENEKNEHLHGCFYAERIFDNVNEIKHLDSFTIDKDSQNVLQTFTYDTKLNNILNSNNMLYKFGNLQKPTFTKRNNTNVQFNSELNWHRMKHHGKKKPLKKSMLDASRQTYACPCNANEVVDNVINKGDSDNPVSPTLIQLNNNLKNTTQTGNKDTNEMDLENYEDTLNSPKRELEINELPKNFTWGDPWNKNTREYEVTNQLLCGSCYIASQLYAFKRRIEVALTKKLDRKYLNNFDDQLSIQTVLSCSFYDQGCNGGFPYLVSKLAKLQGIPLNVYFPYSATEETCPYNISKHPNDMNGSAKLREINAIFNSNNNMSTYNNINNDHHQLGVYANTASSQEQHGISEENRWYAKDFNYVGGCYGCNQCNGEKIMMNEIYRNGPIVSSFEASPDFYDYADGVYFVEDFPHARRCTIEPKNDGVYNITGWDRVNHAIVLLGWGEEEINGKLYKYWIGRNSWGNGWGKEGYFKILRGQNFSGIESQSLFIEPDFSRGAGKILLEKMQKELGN

This assay has as its target DPAP1 (Plasmodium falciparum, UniProt Q8IIJ9). In words: primary screen, percent inhibition; read by cleavage of a fluorogenic dipeptide substrate; higher = more effect of the substance. On the set-up: species or system P. falciparum D10 trophozoite lysates; single well.
Turning to `Cc1ccc(C)n1-c1nnc(N2CCC(C(=O)NC3CCCC(C)C3C)CC2)s1` (centres unmarked), the “% Inhibition @ 10 uM” value is recorded as -0.522%. In the case of `CC(=O)Nc1ccc(N/C=C(/C#N)c2nc(-c3ccc(Cl)cc3Cl)cs2)cc1` it was 2.01%.

Regarding `O=c1oc2c3c(ccc2c2ccccc12)OCN(CCc1ccccc1F)C3`, the “% Inhibition @ 10 uM” value was 2.54%. In the case of `CC(C)(C)c1ccc(C(=O)N(Cc2cccs2)C2CCS(=O)(=O)C2)cc1` (centres unmarked) it was -3.47%. With `O=C(c1ccc(C(F)(F)F)cc1)N1CCCCC1` the figure was -1.24%; with `COc1ccc(C(=O)Nc2nc(-c3nnn(-c4ccccc4F)c3C)ns2)cc1`, -5.13%; with `COc1ccc(C2NC(S)=NC(C)=C2C(=O)Nc2ccc(C)cc2)cc1` (centres unmarked), 2.78%. In the case of `Cc1nn(C)c2c1c(-c1ccccc1)cc(=O)n2CC(=O)c1c(C)n(C)c2ccccc12` it was 6.2%; in that of `O=C(c1nn2c(c1Cl)NC(c1cccs1)CC2C(F)(F)F)N1CCCCCC1` (centres unmarked), -1.44%; in that of `COc1cc2c(cc1O)CCNC2C` (centres unmarked), 0.968% and 5.53%. Consider `CC(c1ccccc1)C1CC(=O)N(c2ccc3ccccc3n2)C1=O` (centres unmarked), for which the “% Inhibition @ 10 uM” value is on record as 1.42%. On to `COc1ccccc1CNC(=O)CN1C(=O)C(c2ccccc2)Oc2cccnc21` (centres unmarked), for which the “% Inhibition @ 10 uM” value is on record as -5.99%. Regarding `COc1cccc(C(=O)Nc2ccc(S(=O)(=O)Nc3nccnc3OC)cc2)c1`, the “% Inhibition @ 10 uM” value worked out at 11.5%. For the compound `CC(C)CN(CC(C)C)S(=O)(=O)c1ccc(CN2C(=O)c3cccnc3C2=O)s1`, the “% Inhibition @ 10 uM” value is on record as -6.31%. With `O=C(NCCN1CCCC1)c1cccc(Br)c1` the figure was -4.12%; with `COc1ccc(-c2cc(C(F)(F)F)n3nc(C(=O)N4CCN5CCCC5C4)cc3n2)cc1OC` (centres unmarked), 6.52%; with `COc1ccc(C(NC(=O)Cc2ccccc2)c2ccc3cccnc3c2O)cc1OC` (centres unmarked), 3.04%.

In the case of `CC(C)(C)c1ccc(C2c3c(-c4ccccc4O)n[nH]c3C(=O)N2CCO)cc1` (centres unmarked), the “% Inhibition @ 10 uM” value amounted to 3.62%.

Turning to `COC(=O)c1cc(-c2ccc(OC)cc2)nc2ccc(Cl)cc12`, the “% Inhibition @ 10 uM” value is on record as -4.93%.

As for `CCN1CCN(C(=O)c2cc3cc4ccc(OC)cc4nc3s2)CC1`, the “% Inhibition @ 10 uM” value is -0.984%. With `Cc1nc2sccn2c(=O)c1S(=O)(=O)NCC1CCN(Cc2ccccc2Cl)CC1` the figure was -0.256%. With `CCN(CC)S(=O)(=O)N(CC(=O)O)CC(=O)O`, the “% Inhibition @ 10 uM” value was 3.04%. In the case of `COC(=O)c1cnn(-c2ccc(C)cc2)c1-n1cccc1` it was 4.79%; in that of `CSc1nc2n(n1)C(c1ccc(F)c(Br)c1)C1=C(O)CC(C)(C)CC1=N2` (centres unmarked), -1.62%; in that of `CCOc1ccc(-c2cc(C(=O)N3CCN(c4ccccn4)CC3)c3ccccc3n2)cc1`, -0.733%. In the case of `COc1ccc(/C=C2\SC(=O)N(Cc3ccc(F)cc3)C2=O)c(OC)c1` it was 5.28%. For `OCC1OC(Nc2ccc(OC(F)(F)Cl)cc2)C(O)C(O)C1O` (centres unmarked), the “% Inhibition @ 10 uM” value is listed as -2.67%. With `Cc1cc(N)n(-c2ccccc2Cl)n1` the figure was 4.01%. In the case of `CC(C)c1ccc(S(=O)(=O)N2CCN(c3ccccc3F)CC2)cc1` it was -0.425%; in that of `COc1ccc(C2CC(C(F)(F)F)n3ncc(C(=O)O)c3N2)cc1OC` (centres unmarked), 4.86%. With `Cc1nc2c3c(-c4ccccc4)c(-c4ccccc4)oc3ncn2n1` the figure was -3.91%; with `Cc1cc(C)cc(N(CC(=O)Nc2ccc(F)cc2)S(=O)(=O)c2ccccc2)c1`, 2.42%; with `Cc1ccc(CNC(=O)N2CCC(CN3CCOCC3)CC2)cc1`, 2.47%. In the case of `CC(O)CN(Cc1ccc(F)c(F)c1)CC(C)O` (centres unmarked), the “% Inhibition @ 10 uM” value is -3.27%.

In the case of `COc1ccccc1C(=O)Nc1ccc(Cl)c(Cl)c1`, the “% Inhibition @ 10 uM” value is on record as -2.51%. In the case of `Cc1ccc2cccc(OCc3nnc(SCC(=O)O)n3C)c2n1` it was -7.65%. As to `O=[N+]([O-])c1cccc(S(=O)(=O)/C=C/c2ccccc2)c1`, the “% Inhibition @ 10 uM” value is on record as -3.55%. With `NC(=O)c1ccc(NC(=O)C(Sc2ccccc2)c2ccccc2)cc1` (centres unmarked) the figure was -6.59%; with `CC(C)CN(CC(C)C)S(=O)(=O)c1ccc(CN2C(=O)c3cccnc3C2=O)cc1`, -3.9%. With `O=C(O)c1c2c(nc3ccc(Br)cc13)CCCCC2` the figure was 2.99%; with `CCOC(=O)c1c(C)n(C)c2cc(CN(C)C)c(O)c(CN(C)C)c12`, 5%. In the case of `CC(C)CN(CCNC(=O)CN1N=C(c2ccc(Cl)cc2)CCC1=O)CC(C)C` it was 2.18%.

`Cn1c(=O)c2c(nc(CN3CCN(CCO)CC3)n2CCCc2ccccc2)n(C)c1=O`: the “% Inhibition @ 10 uM” value was -3.23%. With `CCOc1ccc(NC(=O)CCC(=O)c2ccc(OC)cc2)cc1` the figure was 4.67%. On to `Cc1ccc(-n2c(CNCc3cccnc3)nc3ccccc3c2=O)cc1`, for which the “% Inhibition @ 10 uM” value is -2.98%. In the case of `Cc1ccc(C(=O)N2CCC(Cc3ccccc3)CC2)cc1` it was -1.48%; in that of `CCN(CC)S(=O)(=O)c1cc(C(=O)OC)ccc1Br`, 0.135%; in that of `CCCCNS(=O)(=O)c1ccc(NC(C)=O)cc1`, 5.69%. In the case of `Cc1ccc(S(=O)(=O)N2CCN=C2c2ccccc2)cc1C` it was -10.9%; in that of `Cc1ccccc1N(CC(=O)NCC1CCCO1)S(C)(=O)=O` (centres unmarked), 0.161%. In the case of `COc1ccc(CNC(=O)c2nnn(-c3cccc(C(F)(F)F)c3)c2N)cc1` it was 0.4%; in that of `COc1ccc(Br)cc1/C=c1\sc2nnc(-c3ccccc3C)n2c1=O`, 0.222%. Consider `O=C(CCc1ccccc1)Nc1ccc(S(=O)(=O)N2CCCCCC2)cc1`, for which the “% Inhibition @ 10 uM” value worked out at 0.764%. Take `CC1=C(C(=O)OCCc2ccccc2)C(c2cccc(F)c2)NC(=O)N1` (centres unmarked): the “% Inhibition @ 10 uM” value was 4.38%. As to `CCC(C)c1ccc(NS(=O)(=O)c2ccc(F)cc2)cc1` (centres unmarked), the “% Inhibition @ 10 uM” value is on record as -3.15%.

As to `O=C(Nc1ccc(S(=O)(=O)N2CCc3ccccc32)cc1)c1cccs1`, the “% Inhibition @ 10 uM” value is given as 1.01%.

As to `CCC(C(=O)NCC1CCCO1)n1nc(C)c2sc3ccccc3c2c1=O` (centres unmarked), the “% Inhibition @ 10 uM” value is -0.229%.

Take `CCOc1ccc(C(C)NC(=O)c2ccc(Cl)cc2)cc1OCC` (centres unmarked): the “% Inhibition @ 10 uM” value is recorded as 3.44%. With `Cc1ccc(-c2cn3nc(C(C)C)sc3n2)c(C)c1` the figure was -6.43%; with `Cc1ccc(S(=O)(=O)N2CCC(Cc3ccccc3)CC2)cc1[N+](=O)[O-]`, -2.77%. With `CCC(C)(C)NC(=O)Cn1c(-c2ccccc2)cc(C(C)=O)c1C` the figure was -2.1%; with `CN(C)c1cc(NC(=O)C23CC4CC(C2)C(C4)C3)c2ccccc2n1`, -2.42%. `CC(C)CCNC(=O)C1CCC(CNS(=O)(=O)c2ccc(Cl)cc2)CC1` (centres unmarked): the “% Inhibition @ 10 uM” value is reported as -4.53%. In the case of `CN(Cc1ccccc1)C(=O)c1ccc(F)cc1` it was -12%; in that of `Cc1ccc(C)c(NC2=C(Cl)C(=O)N(Cc3ccccc3)C2=O)c1`, -0.99%. `Nc1nc(Nc2ccc(Cl)cc2)nc(-c2cc(Cl)ccc2O)n1`: the “% Inhibition @ 10 uM” value is on record as 1.19%.

With `COc1cc(-n2nc(C)c(/C=N/c3ccc(Cl)c(C(=O)O)c3)c2O)ccc1Cl`, the “% Inhibition @ 10 uM” value was 4.67%.

With `COc1ccc(N(CC(=O)Nc2cc(C)cc(C)c2)S(=O)(=O)c2ccc(NC(C)=O)cc2)cc1`, the “% Inhibition @ 10 uM” value was determined as 3.09%. In the case of `COc1ccc(N(CC(=O)Nc2cc(C)ccc2C)S(=O)(=O)c2ccccc2)cc1OC` it was -6.39%; in that of `CCSC1=C(C#N)C(c2ccc(F)cc2)CC(=O)N1` (centres unmarked), 0.851%. With `Cc1ccc2onc(CNC(=O)NCc3ccccc3Cl)c2c1` the figure was 2.46%; with `Cc1oc(-c2ccc(Cl)cc2)nc1CS(=O)CC(=O)NCC1CCCO1` (centres unmarked), -1.05%. In the case of `Fc1cc(F)c(F)c(-n2ncc3c2ncn2nc(-c4ccccc4)nc32)c1F` it was 2.19%; in that of `N#Cc1ccccc1-c1ccc(/C=C2/SC(=O)N(CC(=O)N3CCOCC3)C2=O)o1`, 0.189%. Consider `CC1CCC(N2CCN(c3ccccc3)CC2)CC1` (centres unmarked), for which the “% Inhibition @ 10 uM” value is recorded as 0.217%.

Take `O=C(CSc1nc2ccccc2o1)N1CCN(c2nnc(-c3ccccc3)c3ccccc23)CC1`: the “% Inhibition @ 10 uM” value came out at 2.46%. In the case of `O=C(NCCc1ccccc1)c1cc(-c2ccc(O)cc2)on1` it was 6.29%; in that of `CC(NC(=O)COCc1cc(-c2cccs2)on1)c1ccccc1` (centres unmarked), -7.33%; in that of `Cc1ccc(NC(=O)c2cccc(Cl)c2)cc1O`, -3.24%. With `Cc1ccc(S(=O)(=O)c2nc(-c3ccc(F)cc3)oc2N(C)C)cc1` the figure was -5.54%.

For `COc1ccc(C(=O)Nc2sc(Cc3ccccc3)c(C)c2C(N)=O)cc1`, the “% Inhibition @ 10 uM” value is given as -1.98%. With `CC(=O)Nc1ccccc1-c1nc2cc3ccccc3cc2n(Cc2ccccc2)c1=O`, the “% Inhibition @ 10 uM” value is listed as -2.8%. `CS(=O)(=O)c1ccc2nc(NC(=O)CCC3CCCCC3)sc2c1`: the “% Inhibition @ 10 uM” value is on record as -1.28%. With `CCOc1ccc(CCNC(=O)CN2C(=O)CSc3c2c(C)nn3-c2ccccc2)cc1`, the “% Inhibition @ 10 uM” value was -3.04%. Take `COc1cc2c(cc1OC)C(C(=O)O)C(c1cccnc1)N(C)C2=O` (centres unmarked): the “% Inhibition @ 10 uM” value is given as -0.74%. As to `Nc1c(C(=O)NC2CCCCC2)sc2nc3c(cc12)CN(Cc1ccccc1)CC3`, the “% Inhibition @ 10 uM” value came out at 2.34%. With `CC(C)c1ccc(C2NC(C(=O)O)Cc3c2[nH]c2ccccc32)cc1` (centres unmarked) the figure was -0.0372%; with `CN1CCN(CCCNC(=O)Cn2ncc3c4ccccc4n(C)c3c2=O)CC1`, -7.36%. With `O=S(=O)(O)c1nc2ccccc2s1` the figure was -6.2%; with `O=C(CCc1nnc2n(Cc3ccc(F)cc3)c(=O)c3ccccc3n12)NCc1cccnc1`, -0.692%. In the case of `O=C(NCc1ccccc1)/C(=C/c1ccc2c(c1)OCO2)NC(=O)c1ccccc1Cl` it was 23.4%; in that of `CC(C)(C)C(=O)/C(=C/c1ccncc1)n1cncn1`, -5.33%. For the compound `Cc1cc(C(=O)Nc2c(C)nn(Cc3ccccc3)c2C)no1`, the “% Inhibition @ 10 uM” value turned out to be 1.82%. With `CCOC(=O)N1CCN(S(=O)(=O)N2CCCC(C(=O)NCCc3ccc(Cl)cc3)C2)CC1` (centres unmarked) the figure was -1.34%; with `C/C(CC(=O)c1ccccc1)=C1\C(=O)NN(c2ccccc2)C1=O`, -3.13%; with `Cc1cc(NCc2ccccn2)nc2ccccc12`, 0.0538%. In the case of `Cc1cc(C)c2c3c(sc2n1)C(c1ccc(F)c(F)c1)C(C#N)=C(N)O3` (centres unmarked) it was 6.29%; in that of `COc1ccc(C2C(=O)N(C3CCCCC3)CC(=O)N2Cc2ccc3c(c2)OCO3)cc1` (centres unmarked), 2.9%.
